Laboratory results from the CheMixHub viscosity set.
This continues a long series; more values of the same kind are listed elsewhere.

Experiment: xn = mol fraction of the nth substance listed
Conditions: 101 kPa

CCC(O)CO (centres undefined) + O
viscosity [mPa·s]
Conditions	308.15 K	313.15 K	318.15 K	323.15 K
x1 = 0.005	–	0.689	0.632	0.572
x1 = 0.01	–	0.732	0.669	0.6
x1 = 0.015	0.874	0.78	0.714	0.644
x1 = 0.02	0.929	0.844	0.761	0.686
